Some of the results follow.
Tests used:
Test in all cases: glycan array binding signal (z-score within array); higher = stronger binding
Conditions in all cases: glycan notation: IUPAC condensed, linker removed
Fuc(a1-2)Gal = target: Fuc(a1-2)Gal
Summary of the method: (§1)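 From the Consortium for Functional Glycomics database, 3228 arrays were curated, keeping only those whose protein sequence was available. Binding is given as a within-array Z-score averaged across arrays sharing a protein sequence and across linkers. Negative Z-scores can be read as non-binding.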

Fuc(a1-2)Gal(b1-3)GalNAc = target: Fuc(a1-2)Gal(b1-3)GalNAc
Summary of the method: as §1

[1] = target: Fuc(a1-2)Gal(b1-3)GalNAc(a1-3)[Fuc(a1-2)]Gal(b1-4)Glc
Summary of the method: as §1

[2] = target: Fuc(a1-2)Gal(b1-3)GalNAc(a1-3)[Fuc(a1-2)]Gal(b1-4)GlcNAc
Summary of the method: as §1

[3] = target: Fuc(a1-2)Gal(b1-3)GalNAc(b1-3)Gal
Summary of the method: as §1

[4] = target: Fuc(a1-2)Gal(b1-3)GalNAc(b1-3)Gal(a1-4)Gal(b1-4)Glc
Summary of the method: as §1

[5] = target: Fuc(a1-2)Gal(b1-3)GalNAc(b1-4)[Neu5Ac(a2-3)]Gal(b1-4)Glc
Summary of the method: as §1

Fuc(a1-2)Gal(b1-3)GlcNAc = target: Fuc(a1-2)Gal(b1-3)GlcNAc
Summary of the method: as §1

[6] = target: Fuc(a1-2)Gal(b1-3)GlcNAc(b1-2)Man(a1-3)[Fuc(a1-2)Gal(b1-3)GlcNAc(b1-2)Man(a1-6)]Man(b1-4)GlcNAc(b1-4)GlcNAc
Summary of the method: as §1

[7] = target: Fuc(a1-2)Gal(b1-3)GlcNAc(b1-2)Man(a1-3)[Fuc(a1-2)Gal(b1-3)GlcNAc(b1-2)Man(a1-6)]Man(b1-4)GlcNAc(b1-4)[Fuc(a1-6)]GlcNAc
Summary of the method: as §1

[8] = target: Fuc(a1-2)Gal(b1-3)GlcNAc(b1-3)Gal(b1-4)Glc
Summary of the method: as §1

[9] = target: Fuc(a1-2)Gal(b1-3)GlcNAc(b1-3)GalNAc
Summary of the method: as §1

[10] = target: Fuc(a1-2)Gal(b1-3)GlcNAc(b1-3)[Fuc(a1-2)Gal(b1-3)GlcNAc(b1-6)]GalNAc
Summary of the method: as §1

[11] = target: Fuc(a1-2)Gal(b1-3)GlcNAc(b1-3)[Fuc(a1-3)[Gal(b1-4)]GlcNAc(b1-6)]Gal(b1-4)Glc
Summary of the method: as §1

[12] = target: Fuc(a1-2)Gal(b1-3)GlcNAc(b1-3)[Gal(b1-4)GlcNAc(b1-6)]Gal(b1-4)Glc
Summary of the method: as §1

[13] = target: Fuc(a1-2)Gal(b1-3)GlcNAc(b1-3)[Gal(b1-4)[Fuc(a1-3)]GlcNAc(b1-6)]Gal(b1-4)Glc
Summary of the method: as §1

[14] = target: Fuc(a1-2)Gal(b1-3)GlcNAc(b1-3)[Neu5Ac(a2-6)Gal(b1-4)GlcNAc(b1-6)]Gal(b1-4)Glc
Summary of the method: as §1

[15] = target: Fuc(a1-2)Gal(b1-3)GlcNAc6S
Summary of the method: as §1

[16] = target: Fuc(a1-2)Gal(b1-3)[Fuc(a1-4)]GlcNAc
Summary of the method: as §1

[17] = target: Fuc(a1-2)Gal(b1-3)[Fuc(a1-4)]GlcNAc(b1-2)Man(a1-3)[Fuc(a1-2)Gal(b1-3)[Fuc(a1-4)]GlcNAc(b1-2)Man(a1-3)]Man(b1-4)GlcNAc(b1-4)GlcNAc
Summary of the method: as §1

[18] = target: Fuc(a1-2)Gal(b1-3)[Fuc(a1-4)]GlcNAc(b1-2)Man(a1-3)[Fuc(a1-2)Gal(b1-3)[Fuc(a1-4)]GlcNAc(b1-2)Man(a1-6)]Man(b1-4)GlcNAc(b1-4)GlcNAc
Summary of the method: as §1

[19] = target: Fuc(a1-2)Gal(b1-3)[Fuc(a1-4)]GlcNAc(b1-2)Man(a1-3)[Fuc(a1-2)Gal(b1-3)[Fuc(a1-4)]GlcNAc(b1-2)Man(a1-6)]Man(b1-4)GlcNAc(b1-4)[Fuc(a1-6)]GlcNAc(b1-4)[Fuc(a1-6)]GlcNAc
Summary of the method: as §1

[20] = target: Fuc(a1-2)Gal(b1-3)[Fuc(a1-4)]GlcNAc(b1-3)[Fuc(a1-3)[Gal(b1-4)]GlcNAc(b1-6)]Gal(b1-4)Glc
Summary of the method: as §1

[21] = target: Fuc(a1-2)Gal(b1-3)[Fuc(a1-4)]GlcNAc(b1-3)[Gal(b1-4)GlcNAc(b1-6)]Gal(b1-4)Glc
Summary of the method: as §1

[22] = target: Fuc(a1-2)Gal(b1-4)Fuc(a1-3)]GlcNAc(b1-2)Man(a1-3)[Fuc(a1-2)Gal(b1-4)[Fuc(a1-3)]GlcNAc(b1-2)Man(a1-6)]Man(b1-4)GlcNAc(b1-4)GlcNAc
Summary of the method: as §1

Fuc(a1-2)Gal(b1-4)Glc = target: Fuc(a1-2)Gal(b1-4)Glc
Summary of the method: as §1

Fuc(a1-2)Gal(b1-4)Glc6S = target: Fuc(a1-2)Gal(b1-4)Glc6S
Summary of the method: as §1

Fuc(a1-2)Gal(b1-4)GlcNAc = target: Fuc(a1-2)Gal(b1-4)GlcNAc
Summary of the method: as §1

[23] = target: Fuc(a1-2)Gal(b1-4)GlcNAc(b1-2)Man
Summary of the method: as §1

[24] = target: Fuc(a1-2)Gal(b1-4)GlcNAc(b1-2)Man(a1-3)[Fuc(a1-2)Gal(b1-4)GlcNAc(b1-2)Man(a1-6)]Man(b1-4)GlcNAc(b1-4)GlcNAc
Summary of the method: as §1

B1: HPA (Helix pomatia), Q575S3 (protein)
chain: MWAHLTGLLLICALSLSAAQRAQTGEIDCGSDSSWPKDPSDNPNRDNTREIVKHVTFSPQFCREPKVILSVTTLDAEHTKNLRYEARLKSVSPSGLSASCYSWHDGTIYRMKLSWLAVED
Q: For B1, which “glycan array binding signal (z-score)” value (Fuc(a1-2)Gal) is on record?
A: The value was -0.262.

Q: And the “glycan array binding signal (z-score)” value (Fuc(a1-2)Gal(b1-3)GalNAc)?
A: The value was -0.265.

Q: And the “glycan array binding signal (z-score)” value [1]?
A: The value was -0.239.

Q: What about the “glycan array binding signal (z-score)” value [2] of the same binder?
A: The value was 0.219.

Q: What about the “glycan array binding signal (z-score)” value [3] of the same binder?
A: The value was -0.268.

Q: What about the “glycan array binding signal (z-score)” value [4] of the same binder?
A: The value was -0.267.

Q: What about the “glycan array binding signal (z-score)” value [5] of the same binder?
A: Its value is -0.265.

Q: What about the “glycan array binding signal (z-score)” value (Fuc(a1-2)Gal(b1-3)GlcNAc) of the same binder?
A: The value was -0.264.

Q: What about the “glycan array binding signal (z-score)” value [6] of the same binder?
A: Its value is -0.236.

Q: What about the “glycan array binding signal (z-score)” value [7] of the same binder?
A: Its value is -0.242.

Q: And the “glycan array binding signal (z-score)” value [8]?
A: Its value is -0.266.

Q: And the “glycan array binding signal (z-score)” value [9]?
A: Its value is -0.248.

Q: And the “glycan array binding signal (z-score)” value [10]?
A: Its value is -0.243.

Q: And the “glycan array binding signal (z-score)” value [11]?
A: Its value is -0.248.

Q: And the “glycan array binding signal (z-score)” value [12]?
A: The value was -0.243.

Q: And the “glycan array binding signal (z-score)” value [13]?
A: Its value is -0.315.

Q: And the “glycan array binding signal (z-score)” value [14]?
A: The value was -0.259.

Q: And the “glycan array binding signal (z-score)” value [15]?
A: The value was -0.244.

Q: And the “glycan array binding signal (z-score)” value [16]?
A: The value was -0.26.

Q: And the “glycan array binding signal (z-score)” value [17]?
A: The value was -0.229.

Q: What about the “glycan array binding signal (z-score)” value [18] of the same binder?
A: The value was -0.249.

Q: What about the “glycan array binding signal (z-score)” value [19] of the same binder?
A: Its value is -0.246.

Q: What about the “glycan array binding signal (z-score)” value [20] of the same binder?
A: The value was -0.256.

Q: And the “glycan array binding signal (z-score)” value [21]?
A: The value was -0.238.

Q: What about the “glycan array binding signal (z-score)” value [22] of the same binder?
A: Its value is -0.186.

Q: What about the “glycan array binding signal (z-score)” value (Fuc(a1-2)Gal(b1-4)Glc) of the same binder?
A: Its value is -0.255.

Q: What about the “glycan array binding signal (z-score)” value (Fuc(a1-2)Gal(b1-4)Glc6S) of the same binder?
A: Its value is -0.257.

Q: And the “glycan array binding signal (z-score)” value (Fuc(a1-2)Gal(b1-4)GlcNAc)?
A: Its value is -0.267.

Q: And the “glycan array binding signal (z-score)” value [23]?
A: Its value is -0.244.

Q: What about the “glycan array binding signal (z-score)” value [24] of the same binder?
A: Its value is -0.244.
